Measurements as given in PubChem BioAssay AID924 (National Center for Advancing Translational Sciences (NCATS), 2007).
Several values for one entry are separate records, joined by “and”; a condition that tells them apart may be missing. Equal values may be shown once. Out of some 130,000 compounds screened, about 1,200 (0.92%) were called active. The inconclusive results got no clear call from the source; some entries with a clear call stand among them for comparison. The call rests on the fitted dose curve; in most records, active means well fitted cell-killing curve with a large enough effect; inconclusive means small, poorly fitted or top-dose-only effect; inactive means no such curve, though single readings can be large or run the other way. A potency beside an inconclusive call is a rough fit, not a confirmed value.

Test: qHTS Screen for Compounds that Selectively Target Cancer Cells with p53 Mutations: Cytotoxicity of p53ts Cells at the Permissive Temperature; further: nearly all actives have a fitted effect of over 55% in size;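 on activity change, negative = cytotoxicity: 0% = DMSO and -100% = full killing by reference compound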
Conditions: H1299-p53A138V at 32C, ATP luminescence viability, 24 h; activity change, negative = cytotoxicity: at 46.1 µM (top of the series)
Procedure, shortened: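 Viability by ATPlite luminescence after 24 h compound treatment (up to 46 uM) at the permissive 32C. Cells are H1299 carrying p53 A138V. Scale runs from DMSO basal to 100 uM tamoxifen as full kill; AC50 from Hill fits.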
Potency means the concentration at half of the fitted maximal effect; tags describe the fitted curve by direction and shape.

Row | SMILES | Potency | activity change, negative = cytotoxicity
1 | CN(Cc1ccccc1)C(=O)c1cccc(NC(=O)c2nsc3ccccc23)c1 | inconclusive: 11.2 µM [cytotoxic, partial curve] | 
2 | O=C(NCc1ccc(F)cc1)C1CCN(c2ncnc3c2nc2n3CCCCC2)CC1 | inactive | 
3 | Cc1ccc2[nH]c(-c3ccccc3)cc(=O)c2c1 | active: 6.31 µM | 
4 | CCOC(=O)c1c(C)oc2c1c(C(c1ccncc1)N1CCOCC1)c(O)c1ccccc12 (stereo unspecified) | inconclusive: 15.8 µM [cytotoxic, single point] | 
5 | CC1=CC(=O)c2ccccc2C1=O | active: 10 µM and active: 25.1 µM | 
6 | CCn1c(C)nc2cc(-c3nc4n(n3)Cc3ccccc3-4)ccc21 | active: 0.316 µM | 
7 | COc1cc(Cl)c(NC(=O)CN(C)S(=O)(=O)c2ccc3c(c2)CCCC(=O)N3)c(OC)c1 | inactive | 
8 | CCOC(=O)c1c(C)[nH]c(C(=O)COC(=O)c2ccncc2)c1C | inactive | 
9 | O=C(O)CCC(=O)c1cccc2ccccc12 | inactive | 
10 | CCOc1ccccc1NC(=O)c1ccc2c(Cl)c3c(nc2c1)CCCC3 | inactive | 
11 | COc1ccc(NC(=O)CCS(=O)(=O)c2nc(-c3ccc4c(c3)OCO4)cc(C(F)(F)F)n2)c(OC)c1 | inconclusive: 25.1 µM [cytotoxic, single point] | 
12 | Cc1ccc(Nc2ncnc3c2nc2n3CCCC2)c(Br)c1 | active: 10 µM | 
13 | Clc1ccc(Nc2ncnc3c2cnn3-c2ccccc2)cc1 | inconclusive: 20 µM [cytotoxic, partial curve] | 
14 | Oc1cc(Cc2ccccc2)cnc1CN1CCCCC1 | inactive | 
15 | CCc1ccc(-c2nn[nH]n2)cc1 | inconclusive: 12.6 µM [cytotoxic, single point] | 
16 | Cc1ccc(-n2nc3c(N4CCC(C(=O)NCCc5ccccc5C)CC4)nnc(C)c3c2C)cc1 | inconclusive: 31.6 µM [cytotoxic, single point] | 
17 | O=C(Nc1nc2c(s1)CCCC2)c1cccs1 | active: 10 µM | 
18 | CC(=O)Oc1cc2c(C(=O)NCCCN3CCOCC3)c(C)oc2c2ccccc12 | inconclusive: 25.1 µM [cytotoxic, single point] | 
19 | Nc1ncnc2c1c(I)cn2C1OC(CO)C(O)C1O (stereo unspecified) | inactive | 
20 | CCOC(=O)c1cnc2ccc(C(=O)OC)cc2c1Nc1ccc(N2CCOCC2)cc1 | inconclusive: 31.6 µM [cytotoxic, single point] | 
21 | Cc1ccc(OCCCSc2nc(-c3ccc(C(C)(C)C)cc3)nc3cc(=O)[nH]n23)cc1C | inconclusive: 31.6 µM [cytotoxic, single point] | 
22 | COc1ccc(C(=O)NC(c2ccc(Cl)cc2)c2cc(Cl)c3cccnc3c2O)cc1 (stereo unspecified) | inconclusive: 3.98 µM [cytotoxic, full curve, poor fit] | 
23 | Cc1nn2cc(-c3ccccc3)nc2s1 | active: 10 µM | 
24 | Cn1cccc1/C=N/NC(=O)C12CC3CC(CC(C3)C1)C2 | inconclusive: 0.01 µM [cytotoxic, full curve, poor fit] | 

Row | SMILES | Potency | activity change, negative = cytotoxicity
25 | CCOC(=O)CSc1nnc(-c2ccoc2C)n1-c1ccc(OCC)cc1 | inactive | 
26 | COC(=O)c1ccc2c(c1)N(Cc1nc(-c3cccc(Cl)c3)oc1C)C(=O)C1CCCN21 (stereo unspecified) | inconclusive: 1 µM [cytotoxic, full curve, poor fit] | 
27 | CCOc1ccc(-n2nc3ccc(NC(=O)c4ccc(-c5cccc(Cl)c5)o4)cc3n2)cc1 | inconclusive: 15.8 µM [cytotoxic, single point] | 
28 | O=c1c2ccccc2nc(-c2ccco2)n1Cc1ccccc1 | inactive | 
29 | O=C(Nc1ccc(Cl)cc1)N1CCC(c2ccccc2)C1 (stereo unspecified) | inconclusive: 10 µM [cytotoxic, partial curve] | 
30 | S=c1nc(-c2ccccc2Br)[nH][nH]1 | inactive | 
31 | CCC(C)NC(=O)CN1C(=O)COc2ccc(S(=O)(=O)N3CCOCC3)cc21 (stereo unspecified) | inconclusive: 3.16 µM [cytotoxic, single point] | 
32 | O=C1C(c2ccnc3ccccc23)=C(O)c2ccccc21 | inconclusive: 0.794 µM [cytotoxic, full curve] | 
33 | CC1Cc2cc(S(=O)(=O)NCc3ccc(N(C)C)cc3)ccc2N1C(=O)C1CCC1 (stereo unspecified) | inactive | 
34 | COc1cccc(-c2nccc(NCCc3c[nH]c4ccc(OC)cc34)n2)c1 | inconclusive: 25.1 µM [cytotoxic, single point] | 
35 | COc1ccc(C(=O)Nc2nnc(C(F)(F)F)s2)cc1 | inconclusive: 7.94 µM [cytotoxic, single point] | 
36 | CC(=O)c1ccc(NC(=O)CCc2c(C)nn(-c3ccc(N4CCCCC4)nn3)c2C)cc1 | inconclusive: 12.6 µM [cytotoxic, partial curve] | 
37 | CCCCOc1ccc(C(=O)N/C(=C\c2ccc(Br)cc2)C(=O)NC2CCCCC2)cc1 | inactive | 
38 | CCc1cccc(NC(=O)CCS(=O)(=O)c2ccc3nc(C)sc3c2)c1 | inactive | 
39 | O=C(NCCCN1CCN(c2ccccc2F)CC1)c1cc2c(s1)-c1ccccc1OC2 | inconclusive: 25.1 µM [cytotoxic, single point] | 
40 | O=C(O)c1ccc(NC(=O)c2cc3ccccc3o2)cc1 | active: 7.94 µM | 
41 | O=S(=O)(Nc1nc2ccccc2nc1N1CCN(c2ccccn2)CC1)c1ccc(Cl)cc1 | inconclusive: 10 µM [cytotoxic, partial curve] | 
42 | CC(=NCc1ccco1)c1c(C)[nH]n(-c2nc3ccccc3s2)c1=O | inconclusive: 10 µM [cytotoxic, partial curve] | 
43 | Cn1c(NCc2c[nH]c3ccccc23)nc2ccccc21 | inconclusive: 31.6 µM [cytotoxic, single point] | 
44 | COc1ccc(Cl)cc1NC(=O)Cn1nnc(C(=O)NCc2cccs2)c1N | inconclusive: 35.5 µM [cytotoxic, single point] | 
45 | COc1cccc(C=Nc2ccc3c(c2)OCCO3)c1O | inconclusive: 31.6 µM [cytotoxic, single point] | 
46 | COc1cccc(-c2cc(C(=O)N3CCN(c4ncccn4)CC3)c3ccccc3n2)c1 | active: 12.6 µM | 
47 | Cc1cc(C)cc(NC(=S)N=Nc2c(O)n(C)c3ccc(S(=O)(=O)N4CCOCC4)cc23)c1 | inconclusive: 0.0282 µM [cytotoxic, full curve, poor fit] | 
48 | COC(=O)c1c(-c2cccs2)csc1NC(=O)COc1ccccc1 | inconclusive: 31.6 µM [cytotoxic, single point] | 

Row | SMILES | Potency | activity change, negative = cytotoxicity
49 | O=C(Oc1ccc(-c2nc(-c3ccccn3)no2)cc1)c1ccccc1 | inconclusive: 5.01 µM [cytotoxic, partial curve] | 
50 | Clc1ccc(OCc2nc(-c3ccccn3)n[nH]2)cc1 | inconclusive: 7.94 µM [cytotoxic, partial curve] | 
51 | Nc1nc2c(cnn2CCc2ccccc2)c2nc(-c3ccco3)nn12 | inconclusive: 31.6 µM [cytotoxic, single point] | 
52 | CCOC(=O)N/N=C1/C[C@@H](O)[C@@H](O)[C@@H]2[C@@H]3C(=O)N(C[C@@H]4CCCO4)C(=O)[C@H]3CC[C@@H]12 |  | inactive: -5.17% [at 9.22 µM]
53 | COc1ccc(Cn2c(C)nc3c(c2=O)c2nc4ccccc4nc2n3Cc2ccco2)cc1 | inactive | 
54 | O=C(Nc1cccc(Cl)c1)c1cc(S(=O)(=O)N2CCCc3ccccc32)ccc1F | inconclusive: 35.5 µM [cytotoxic, partial curve, poor fit] | 
55 | CCOc1cc(C2CC(=O)Nc3c2c(=O)nc(SCc2cccc(Cl)c2)n3C)ccc1O (stereo unspecified) | inconclusive: 6.31 µM [cytotoxic, single point] | 
56 | Cc1ccc(S(=O)(=O)C(CNC(=O)COc2ccc(Cl)cc2)c2ccco2)cc1 (stereo unspecified) | inactive | 
57 | Cc1ccc(NC(=O)c2ccc3c(c2)NC(=O)c2ccccc2S3)cc1 | inactive | 
58 | CCOC(=O)c1ccc(CN(Cc2ccc(F)cc2)S(=O)(=O)c2cc(C(=O)Nc3ccccc3CC)ccc2F)cc1 | inactive | 
59 | CN(C)c1ccc(-c2noc(-c3ccccc3O)n2)cc1 | inconclusive: 3.16 µM [cytotoxic, full curve] | 
60 | O=C(Nc1ccccc1)N(Cc1cccs1)c1ccc(Cl)cc1 | inactive | 
61 | Cc1cccc(-n2c(=O)[nH]c3c(C(N)=O)nc(-c4ccccc4Cl)nc32)c1 | inconclusive: 31.6 µM [cytotoxic, single point] | 
62 | COCCNC(=O)c1cn(C)c2ccc(S(=O)(=O)N(C)C3CCCCC3)cc2c1=O | inconclusive: 7.94 µM [cytotoxic, partial curve] | 
63 | Cc1ccc(/C=C/c2nc3ccccc3n2S(=O)(=O)c2ccc(Br)cc2)cc1 | active: 5.01 µM | 
64 | COc1cccc(N=C2SC(C(=O)Nc3cccc(Cl)c3)CC(=O)N2C)c1 (stereo unspecified) | inconclusive: 31.6 µM [cytotoxic, single point] | 
65 | Cc1sc2ncnc(Sc3nnnn3-c3ccccc3)c2c1C | inconclusive: 31.6 µM [cytotoxic, single point] | 
66 | Cc1ccc(Nc2nc3nonc3[nH]c2=O)cc1C | active: 12.6 µM | 
67 | CCOC(=O)OCC1OC(c2ccccc2)C=CC1Oc1cccc(N(C)C)c1 (stereo unspecified) |  | inactive: 6.95% [at 9.22 µM]
68 | COc1ccc(-c2cc(C(=O)NCCc3ccccc3)c3c(-c4ccccc4)[nH]nc3n2)cc1 | inconclusive: 10 µM [cytotoxic, partial curve] | 
69 | O=S(=O)(Nc1cccc(-c2ccc(N3CCCCC3)nn2)c1)c1ccc(F)cc1F | active: 12.6 µM | 
70 | Fc1ccc(Cc2cn3cc(-c4ccc(F)cc4)nc3s2)cc1 | inconclusive: 2.24 µM [cytotoxic, full curve] | 
71 | Cc1cnc(NC(=O)c2ccc(-c3nc4ccccc4s3)o2)s1 | inconclusive: 25.1 µM [cytotoxic, single point] | 
